We go through 44 compounds from PMC4336329 (PLoS ONE, 2015).

The structures appear in SMILES notation. Screen size: about 310,000 compounds; about 2,200 (0.71%) showed an effect of 50% or more. The effect is printed as a negative number. Some of the results follow.

For the assay, the target named is human ether-à-go-go-related gene (hERG) potassium channel (human, UniProt Q12809). The assay can be described thus: primary screen, population patch clamp on CHO cells stably expressing hERG.
Chain of human ether-à-go-go-related gene (hERG) potassium channel (Q12809 whole entry, looked up): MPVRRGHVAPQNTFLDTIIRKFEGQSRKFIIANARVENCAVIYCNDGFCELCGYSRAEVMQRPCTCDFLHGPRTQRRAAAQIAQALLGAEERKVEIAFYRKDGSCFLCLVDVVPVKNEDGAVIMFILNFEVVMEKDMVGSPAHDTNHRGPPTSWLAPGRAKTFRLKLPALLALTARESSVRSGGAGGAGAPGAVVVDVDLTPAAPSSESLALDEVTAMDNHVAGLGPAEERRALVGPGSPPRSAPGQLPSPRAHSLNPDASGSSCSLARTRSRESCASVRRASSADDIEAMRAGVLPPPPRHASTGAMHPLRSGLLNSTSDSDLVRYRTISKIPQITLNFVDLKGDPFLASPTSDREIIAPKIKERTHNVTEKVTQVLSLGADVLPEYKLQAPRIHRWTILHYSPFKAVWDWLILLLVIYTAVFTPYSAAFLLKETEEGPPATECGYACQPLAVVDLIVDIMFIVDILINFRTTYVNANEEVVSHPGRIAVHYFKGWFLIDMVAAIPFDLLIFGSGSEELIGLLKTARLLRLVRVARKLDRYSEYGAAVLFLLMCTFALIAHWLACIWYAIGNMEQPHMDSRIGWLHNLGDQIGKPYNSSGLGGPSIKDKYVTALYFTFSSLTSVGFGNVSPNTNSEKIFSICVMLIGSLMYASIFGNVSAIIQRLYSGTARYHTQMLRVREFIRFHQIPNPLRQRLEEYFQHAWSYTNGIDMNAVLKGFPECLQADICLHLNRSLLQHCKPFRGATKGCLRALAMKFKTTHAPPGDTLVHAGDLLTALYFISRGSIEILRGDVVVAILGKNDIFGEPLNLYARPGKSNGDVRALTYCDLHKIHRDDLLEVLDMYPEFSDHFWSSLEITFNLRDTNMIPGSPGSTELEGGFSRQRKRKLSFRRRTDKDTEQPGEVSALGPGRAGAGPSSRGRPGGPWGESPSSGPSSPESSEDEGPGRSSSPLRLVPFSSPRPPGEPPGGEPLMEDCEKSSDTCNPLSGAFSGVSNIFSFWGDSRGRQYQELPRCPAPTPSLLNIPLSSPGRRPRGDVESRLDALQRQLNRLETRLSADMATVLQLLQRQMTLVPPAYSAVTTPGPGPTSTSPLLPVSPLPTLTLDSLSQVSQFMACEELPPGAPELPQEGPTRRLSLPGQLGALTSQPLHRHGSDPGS
On to `N#CC1=C(N)NC(SCc2ccccc2)=C(C#N)C12CCCCC2`, for which the “hERG current change (%, negative = inhibition) at 1uM” value came out at 14.7%.

With `CC(C)C(=O)c1cc2c(cc1NC(=O)c1cccs1)OCCO2`, the “hERG current change (%, negative = inhibition) at 1uM” value is 5.69%.

`COc1ccc(NC2=CC(=O)CC(c3ccccc3)C2)c(OC)c1` (centres unmarked): the “hERG current change (%, negative = inhibition) at 1uM” value worked out at 10.3%.

With `CCOC(=O)c1ccc(NC(=O)C(C)N2C(=O)c3ccccc3C2=O)cc1` (centres unmarked), the “hERG current change (%, negative = inhibition) at 1uM” value turned out to be 13%.

Consider `CCOC(=O)C1CCCN(C(=O)/C(=C/c2ccco2)NC(=O)c2ccccc2)C1` (centres unmarked), for which the “hERG current change (%, negative = inhibition) at 1uM” value turned out to be 7.34%.

In the case of `O=c1[nH]c(=O)n(Cc2ccco2)c2c1C(C(F)(F)F)(C(F)(F)F)N=C(Cc1ccccc1)N2`, the “hERG current change (%, negative = inhibition) at 1uM” value stood at 6.17%.

With `CN(Cc1ccccc1)C(=O)CN1CCN(S(=O)(=O)c2ccc(Cl)c(Cl)c2)CC1`, the “hERG current change (%, negative = inhibition) at 1uM” value stood at 19.7%.

Take `O=C(COc1ccc(S(=O)(=O)N2CCCC2)cc1Cl)Nc1ccc2c(c1)OCO2`: the “hERG current change (%, negative = inhibition) at 1uM” value is reported as 7.77%.

Take `CCOc1cc(Br)c(C(=O)O)cc1OC`: the “hERG current change (%, negative = inhibition) at 1uM” value was -0.372%.

As to `Nc1ncnc(Nc2ccc(F)c(Cl)c2)n1`, the “hERG current change (%, negative = inhibition) at 1uM” value is 12.8%.

On to `COc1cccc(CN(C)C(c2ccccc2)c2ccccc2)c1OC`, for which the “hERG current change (%, negative = inhibition) at 1uM” value is reported as 8.17%.

As to `CCN(CC1COc2ccccc2O1)S(=O)(=O)c1ccc(C)cc1` (centres unmarked), the “hERG current change (%, negative = inhibition) at 1uM” value is 7.11%.

For `CCN(CC)C(=O)C(=O)c1cccn1-c1cccc(OC)c1C#N`, the “hERG current change (%, negative = inhibition) at 1uM” value came to 12.4%.

As to `CNc1nc(C)c(C#N)c(-c2ccccc2)c1C(C)=O`, the “hERG current change (%, negative = inhibition) at 1uM” value is reported as -3.15%.

Consider `Cc1sc2ncnc(N(C)CCc3ccccn3)c2c1C.O=C(O)C(=O)O`, for which the “hERG current change (%, negative = inhibition) at 1uM” value came to 18.8%.

Take `C/C=C(/C)C(=O)Nc1cccc(C2=NOC3(C2)C[C@@H](C(N)=O)N(C(=O)/C=C/CC)C3)c1` (some centres unmarked): the “hERG current change (%, negative = inhibition) at 1uM” value turned out to be 14.8%.

Take `O=C(O)C1=C[C@H](c2ccccc2)C[C@H](OCCCCO)O1`: the “hERG current change (%, negative = inhibition) at 1uM” value is listed as 13.9%.

For the compound `COc1ccc(N=C2O/C(=C/c3sc(=S)n(CC4CCCO4)c3O)N=C2C#N)cc1` (centres unmarked), the “hERG current change (%, negative = inhibition) at 1uM” value worked out at 11.8%.

Turning to `CC(C)CN(Cc1c(O)ccc2ccccc12)CC(C)C`, the “hERG current change (%, negative = inhibition) at 1uM” value amounted to 18%.

In the case of `Cc1nc(Cl)c(N=Cc2cccc([N+](=O)[O-])c2)c(Cl)n1`, the “hERG current change (%, negative = inhibition) at 1uM” value worked out at 18.3%.

Consider `c1ccc2c(c1)Nc1cc3ccccc3cc1S2`, for which the “hERG current change (%, negative = inhibition) at 1uM” value was determined as 14%.

With `Cc1ccc(C)c(S(=O)(=O)N2CCCCC2CCNC(=O)C(=O)NC2CCCC2)c1` (centres unmarked), the “hERG current change (%, negative = inhibition) at 1uM” value came out at 0.948%.

For `CCc1nc(NCCCCCO)c2nnn(Cc3ccccc3F)c2n1`, the “hERG current change (%, negative = inhibition) at 1uM” value came out at 0.555%.

On to `CC(=O)c1c(OC(=O)c2ccc(C)cc2)c2ccccc2n1C`, for which the “hERG current change (%, negative = inhibition) at 1uM” value came out at 12.8%.

For `CC(C)CN1C(=O)c2ccc(C(=O)Nc3ccc(OCC(=O)O)cc3)cc2C1=O`, the “hERG current change (%, negative = inhibition) at 1uM” value is given as 8.65%.

In the case of `CCOc1ccc(CNC(=S)N/N=C/c2ccncc2)cc1`, the “hERG current change (%, negative = inhibition) at 1uM” value came out at 4.46%.

Take `CC(=O)Nc1ccc(C(=O)CSc2nnc(-c3ccc(O)cc3)n2CC2CCCO2)cc1` (centres unmarked): the “hERG current change (%, negative = inhibition) at 1uM” value was found to be 10.9%.

For the compound `CC1=NN2C(=N)/C(=C\c3ccc(SCc4ccccc4)o3)C(=O)N=C2S1`, the “hERG current change (%, negative = inhibition) at 1uM” value is on record as 1.92%.

For `COc1ccc(OC)c(-c2csc(NC(=O)COC(=O)C3(C)CC3(Cl)Cl)n2)c1` (centres unmarked), the “hERG current change (%, negative = inhibition) at 1uM” value is given as -2.16%.

As for `NC(=O)c1c(-c2ccc(Cl)cc2Cl)csc1NC(=O)Cc1ccccc1`, the “hERG current change (%, negative = inhibition) at 1uM” value amounted to 7.98%.

On to `O=C(Nc1cccc(C(F)(F)F)c1)C1CCCN(c2ncccn2)C1` (centres unmarked), for which the “hERG current change (%, negative = inhibition) at 1uM” value was -1.28%.

Regarding `COc1cccc(OC(=O)CSc2nnc(-c3ccccc3Br)o2)c1`, the “hERG current change (%, negative = inhibition) at 1uM” value is listed as 6.82%.

`Cc1ccc(CNC(=O)Cn2c(=O)oc3ccccc32)o1`: the “hERG current change (%, negative = inhibition) at 1uM” value worked out at 3.37%.

For the compound `O=C(COC(=O)Cn1cnc2ccccc21)Nc1cccc(S(=O)(=O)N2CCOCC2)c1`, the “hERG current change (%, negative = inhibition) at 1uM” value is 12.6%.

Regarding `O=C(COC(=O)CC(c1ccccc1)c1ccccc1)Nc1cccc(F)c1`, the “hERG current change (%, negative = inhibition) at 1uM” value is recorded as 18.5%.

For the compound `O=C(Nc1nnc(COc2ccc(Cl)cc2)s1)c1ccc([N+](=O)[O-])cc1`, the “hERG current change (%, negative = inhibition) at 1uM” value is 4.14%.

In the case of `C=CCNc1sc(C(=O)c2ccc(C)cc2)c(N)c1C#N`, the “hERG current change (%, negative = inhibition) at 1uM” value is recorded as 6.47%.

With `O=C1CCC([N+](=O)[O-])C(C2CC=CCC2)N1` (centres unmarked), the “hERG current change (%, negative = inhibition) at 1uM” value was found to be 14.6%.

For the compound `NS(=O)(=O)c1ccc(CNC(=O)CCC2CCCCC2)cc1`, the “hERG current change (%, negative = inhibition) at 1uM” value stood at 6.44%.

As to `Cc1ccc(NC(=O)CSc2nc(O)c(Cc3ccccc3)c(=O)n2-c2ccccc2)cc1`, the “hERG current change (%, negative = inhibition) at 1uM” value is reported as 17.9%.

Regarding `COC(=O)c1cn(C(=O)c2ccc(F)cc2)c2ccccc12`, the “hERG current change (%, negative = inhibition) at 1uM” value came out at 16.4%.

For the compound `CC1CCCCC1NS(=O)(=O)c1ccc(S(=O)(=O)N2CCN(CCC#N)CC2)cc1` (centres unmarked), the “hERG current change (%, negative = inhibition) at 1uM” value is -3.14%.

As to `CCS(=O)(=O)N1Cc2ccccc2CC1C(=O)N(C)Cc1ccc(OC)c(F)c1` (centres unmarked), the “hERG current change (%, negative = inhibition) at 1uM” value is 17.6%.

Take `C[C@]12CC[C@H]3[C@@H](CC[C@]4(O)C[C@@H](O)CC[C@]34C=O)[C@@]1(O)CC[C@@H]2C1=CC(=O)OC1`: the “hERG current change (%, negative = inhibition) at 1uM” value amounted to 14%.
